Experimental data published in article PMC12136788.
Numbering of substitutions follows the chain as printed. This is one part of the list.

T1: UNK ZnF1-3 (human, UniProt Q9C0B0 31-174)
T1 sequence: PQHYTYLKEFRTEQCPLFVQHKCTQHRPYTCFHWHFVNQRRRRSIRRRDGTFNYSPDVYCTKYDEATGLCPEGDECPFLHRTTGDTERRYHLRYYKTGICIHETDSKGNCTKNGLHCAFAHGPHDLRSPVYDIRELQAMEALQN

B1: chr12:96259795:96259796:+_ENSG00000139343_ENST00000266735|hu_mus|FALSE|FALSE (ssRNA)
RNA: GGGAGUUCUACAGUCCGACGAUCGAGGACAUUAUUACACCUUAUUAGAACUUCGCCCAGAUGUCCAGACAGCGCCCCAUCUAUGUACUCUUCUGUAUUUGCAAGCUGCAUGUUCAUGUAGCCAUCCACGGAGACCAGGUAGCCCAACAGAGGAUUGAGCAUCA
B2: chr4:144460044:144460045:+_ENSG00000153147_ENST00000283131|hu_mus|hu_hu_hu_mus_False|48_58 (ssRNA)
RNA: GGGAGUUCUACAGUCCGACGAUCACGGUCCAUAGCCUGAAGAUCAACUUGCGGAUUCCAAUCUGAGUCAUAUAAAAUUACUACAUCAGCAGUCGCAAGAUUGAUGCCCAGACCACCAGCACGUGUGCUUAGCAUAAAUACAAACAACAGAGGAUUGAGCAUCA
B3: chr11:120668454:120668455:-_ENSMUSG00000025153_ENSMUST00000055655|mus_hu|FALSE|FALSE (ssRNA)
RNA: GGGAGUUCUACAGUCCGACGAUCGAGAUCACAUGCGGUUUAAUUGUGGGAGGCUGAGAGCAGCAUUUUUACCAAAUUGGUGUAAAAAUGAAACGGGGUCCAGACGUGUACACUGACAGUUACAGUAAAUUUCAAAAUCCAAGCCAACAGAGGAUUGAGCAUCA
B4: chr2:14037654:14037655:+_ENSMUSG00000026718_ENSMUST00000102960|mus_hu|FALSE|FALSE (ssRNA)
RNA: GGGAGUUCUACAGUCCGACGAUCAUGACCCUUAUUUAAUACGUUGCUUACUUCACUAGCAAAAUCUCUUGAACAUACUUCUAAAUGAAAAAUUUUGCCACAGUUUGAUACACAUGCUCCUAGAAGAGUCAAAGCCUGCAUAGCCAACAGAGGAUUGAGCAUCA
B5: chr3:139075876:139075877:+_ENSG00000175110_ENST00000310776|hu_mus|motif|central (ssRNA)
RNA: GGGAGUUCUACAGUCCGACGAUCCCAAGAUUUUUAAAUGUUCAGCUUAGUAUUACCAAAAUGGAAGGGCAUUACGGUGAAAUGUGUUUUUAACUGUUCUCAGGAUGCUGCGGAAUGACUGGUAACUAUUUCUUGAUAAGUUUGCAACAGAGGAUUGAGCAUCA
B6: chr4:115894766:115894767:+_ENSMUSG00000028698_ENSMUST00000030464|mus_hu|mus_mus_mus_hu_True|18_88 (ssRNA)
RNA: GGGAGUUCUACAGUCCGACGAUCUUCCACACGGAAAUGUACUUCGGGUUUCCAACGGGCCAGUACCAGUCCGGCCAAACUACCCGAACAGGGUCCUCCCCCUCUCUCCUACAGAACUAAAGCACCCGCCCCCGAACUUUCAAGCAACAGAGGAUUGAGCAUCA
B7: chr12:105553856:105553857:+_ENSG00000136051_ENST00000332180|hu_hu|FALSE|FALSE (ssRNA)
RNA: GGGAGUUCUACAGUCCGACGAUCAAUUAUAUAGAAAUUUCGGAGAUGUAUAUUCUUUGGCCUUCGAAAUUCUGGAGCAAAAACGUCUACAAGCAUUUUGAAAUAUUCUGUGCCUUCGGCAGAAUUUCGUGUGUGAUCACUGAGCAACAGAGGAUUGAGCAUCA
B8: chr2:217012863:217012864:+_ENSG00000079246_ENST00000392132|hu_hu|FALSE|FALSE (ssRNA)
RNA: GGGAGUUCUACAGUCCGACGAUCGAGAGGAAUCUGACUUUUUGUUGUCACCUCAGCGGGAGGAUUCAGCAUAUUCCAAAUAUGCUGCUGAAUUGGGGGUAGAGGCUCCCGGGGAUGUAAAGCUCUGUGCAGCAGACACUGAAACAACAGAGGAUUGAGCAUCA
B9: chr14:66974463:66974464:+_ENSMUSG00000022044_ENSMUST00000074523|mus_hu|mus_mus_mus_hu_False|58_88 (ssRNA)
RNA: GGGAGUUCUACAGUCCGACGAUCUUGUAGGACGACUUAUUCAGGGGAUCAGACAAGAAGCAGGAGCAGAACAAGGACACUAGUGGGAGCUCCUUCAUCUUCUCUUUGUAGGCAGCAAGGGUCAUGUUUCUGGGAUCUGGUGGCCAACAGAGGAUUGAGCAUCA
B10: chr5:135510151:135510152:+_ENSG00000113658_ENST00000545279|hu_mus|FALSE|FALSE (ssRNA)
RNA: GGGAGUUCUACAGUCCGACGAUCGAGGCUGCAGCUGCUGGGGAUCUUACAGACGGUGGUGGGAUGGAAGCCAUGGUGAAAGUUGCAGUUCCUACUCUGAACAAAGAUGCUGCUGUCACUAAGACACUCAGCGUACACCUCCCCCAACAGAGGAUUGAGCAUCA
B11: chr7:151048522:151048523:+_ENSG00000013374_ENST00000566856|hu_mus|hu_hu_hu_mus_True|48_88 (ssRNA)
RNA: GGGAGUUCUACAGUCCGACGAUCCUGUUUCUUAUUUAUUACGAUCUUGAUAUAAUUUUCUUGAAAUCCGAAAGUUUCAGCUAUUUGGGACCUCAGUUCUCUACCAGUGACAUGCAAGCGGGUCUCCAACAAGCUUUUCUUAUCCAACAGAGGAUUGAGCAUCA
B12: chrX:100667754:100667755:+_ENSG00000126945_ENST00000316594|hu_mus|FALSE|FALSE (ssRNA)
RNA: GGGAGUUCUACAGUCCGACGAUCUCCAUAUCUAUGAUCAGACAUUCCUGAGAAACAGUAGUUUAGGUCUCUUCCAAAUCUAUCAGACCCAAAACCAUACCCGUCAUUAUAACCUCCAUAGUCAUCAUAGCCUCCAUACCCUCCCAACAGAGGAUUGAGCAUCA
B13: chr6:51419726:51419727:-_ENSMUSG00000004980_ENSMUST00000114459|mus_hu|FALSE|FALSE (ssRNA)
RNA: GGGAGUUCUACAGUCCGACGAUCUCCAUCGCGGACUCAGUCGCUUCAGCCCGAUUUCCCGCAGCCGAGCGAGAUGAGAGAGAUCUCCGCGGACGAACACGAACCGGACUCGUCCUGGCGCUGUAGUGAGAACUGCCGCUGCUCCAACAGAGGAUUGAGCAUCA
B14: chr4:144460044:144460045:+_ENSG00000153147_ENST00000283131|hu_mus|hu_hu_hu_mus_False|48_88 (ssRNA)
RNA: B2 RNA with C51G, U78G
B15: chr1:186330019:186330020:-_ENSG00000047410_ENST00000367478|hu_mus|FALSE|FALSE (ssRNA)
RNA: GGGAGUUCUACAGUCCGACGAUCCUCAAGCAUUUCUUUUUCCAUCUGAUCUUUAGAUUCUUCCACUUGUAGAAGAUGAUCUUGUAUUGUUUUGUUGGCUUCUCCUGCUUCUUUGAGCAGUUUGUGCAGCUCGUCCACUGCCCGCAACAGAGGAUUGAGCAUCA
B16: chr1:225611761:225611762:-_ENSG00000143815_ENST00000272163|hu_mus|hu_hu_hu_mus_True|88_98 (ssRNA)
RNA: GGGAGUUCUACAGUCCGACGAUCCCAGGCCAUCGGCCUCUUACCACUUCACCAUCGACAAACUUCCUACUUGGCAUUUUCUAAAAUUAGUCUGGCCGCGCUCCGGCGGGAACUCCAGCCACUCCAGGACAGUCACCAGCAGCCCAACAGAGGAUUGAGCAUCA
B17: chrX:140365796:140365797:-_ENSMUSG00000031285_ENSMUST00000033642|mus_mus|mus_mus_mus_hu_False|48_48 (ssRNA)
RNA: GGGAGUUCUACAGUCCGACGAUCCUUCUCAUUACUCAGUGCCUGCAAGGUUCUGGUUCGGUAGAAGCUACAGUGGGCGCUGUGAGUGGGACUUGGAAACCCAUUCAUCCGGGAGCCUCGCAUGUUCCUGGAUGUCUUAUCUCUCAACAGAGGAUUGAGCAUCA
B18: chr14:78183846:78183847:+_ENSG00000119705_ENST00000557342|hu_hu|hu_hu_hu_mus_False|1_8 (ssRNA)
RNA: GGGAGUUCUACAGUCCGACGAUCUCUCAGAAAUCUUUCUUCAUCAGAUGUUUGAGCUCCGUGCAAAGCCUUUGCUCUUUGAGCUUGAACGUGGAUCUAUGGGAGGGAAAGCACUGUCAGAAAAGGUUGUAGUGCAUUCCGAAGCAACAGAGGAUUGAGCAUCA
B19: 83319208_83319328_4002_CDS_ENSMUSG00000034832_ENSMUST00000089622|mouse|control|control (ssRNA)
RNA: GGGAGUUCUACAGUCCGACGAUCGGUCAGAGGGUCUAUUGGCUCUUGCUUGAUGGAUCUGUUGUAGCAACUGGAACUCUGAGCAAAGGGAGAGGGGUCCCUGGAUGCUGGGUGGAGCUGGGGGACCUUGGGUAGCAGAUAUUCCAACAGAGGAUUGAGCAUCA
B20: 115940733_115940853_919_3pUTR_ENSMUSG00000034341_ENSMUST00000074628|mouse|control|control (ssRNA)
RNA: GGGAGUUCUACAGUCCGACGAUCGCUAACUUUAUACUCAGGCCUGGGGAAGAACAGGGCCCUCCCUGGCCUCCUGGAAUCCCAGAUGCAGCCCCACGGGAGGCCCAGGAAGGGGUCUCUGGGUAAGAGGCGGGAAGUGGGCAGCAACAGAGGAUUGAGCAUCA
B21: chr5:128440902:128440903:+_ENSG00000066583_ENST00000173527|hu_mus|hu_hu_hu_mus_True|18_108 (ssRNA)
RNA: GGGAGUUCUACAGUCCGACGAUCUUGAACCGUGCUCCCAAGUCCUUUGGGGUAUUGUUCCGUUAUGAUAACUGGAAUCCCUAAGAUCCGAGCUCCUUGCAACAGUCUCUGUCCCACGCUAAUAAUAUCCCCAAAGUAUUUGAUCAACAGAGGAUUGAGCAUCA
B22: chr12:113201503:113201504:-_ENSMUSG00000021290_ENSMUST00000021719|mus_hu|FALSE|FALSE (ssRNA)
RNA: GGGAGUUCUACAGUCCGACGAUCCCGGAUUUUAUAAACGAUGAAGCCCAUCAGCCCCAUUCCUAUCCAAAUCUCCUGGUAAACUUUGGUGUAGUAGGGCUUCAUGGGGAUCCAUAUGUUUUUAAUAAUACUUUGAAGCAUCUUCAACAGAGGAUUGAGCAUCA

What follows are binders tested against T1, UNK ZnF1-3 (assay: nsRBNS (natural sequence RNA bind-n-seq); RBNS binding buffer (assumed for nsRBNS): 25 mM Tris pH 7.5, 150 mM KCl, 3 mM MgCl2, 0.01% Triton X-100, 500 ug/ml BSA, 20 U/ml SUPERase-In, 4 C; UNK is unkempt and MSI1 is Musashi-1; names of the RNAs are library labels; protein concentration not given here; high values mean tight binding).

Binder	binding signal [enrichment R]
B1	0.931
B2	1.08
B3	3.07
B4	1.62
B5	1.18
B6	1.2
B7	0.936
B8	1.66
B9	2.1
B10	1.42
B11	0.883
B12	1.04
B13	0.724
B14	1.2
B15	0.232
B16	1.31
B17	0.536
B18	1.27
B19	1.47
B20	0.867
B21	0.785
B22	0.513
